The list shows a part of the results. Sequences were assembled here from the parent chain. Values near 0.05 are background.
B1: TEV protease; numbered along this chain (parent)
chain: MGESLFKGPRDYNPISSSICHLTNESDGHTTSLYGIGFGPFIITNKHLFRRNNGTLVVQSLHGVFKVKDTTTLQQHLVDGRDMIIIRMPKDFPPFPQKLKFREPQREERICLVTTNFQTKSMSSMVSDTSCTFPSGDGIFWKHWIQTKDGQCGSPLVSTRDGFIVGIHSASNFTNTNNYFTSVPKNFMELLTNQEAQQWVSGWRLNADSVLWGGHKVFMVKPEEPFQPVKEATQL

Variants of: B1
Assay: raw area under fraction-flipped curve 0-4 h after induction (AUC4h, not background-subtracted), DNA-recorder readout of cleavage of the substrate (dimensionless); higher = more cleavage of the substrate by the protease variant
Conditions: temperature: 34 °C; time window: 0-4 h after rhamnose induction
Experimental: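 In vivo DNA recorder in E. coli TOP10(DE3) ΔrhaA at 34 °C. Each TEVp single-site mutant (parent TEVp 0) is paired with a single-site variant of the 7-mer TEVs (canonical ENLYFQ|S). The substrate sits between flexible linkers in a Bxb1-sfGFP-TEVs-SsrA fusion, so cleavage stabilises Bxb1 and speeds flipping of a recombination array, read by NGS. The value is the raw area under the fraction-flipped curve over 0-4 h after rhamnose induction (AUC4h), with ≥20 reads per time point. It is not background-subtracted; inactive controls average about 0.047.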
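Also: Bxb1 expression induced with 0.2% (w/v) L-rhamnose at OD600 near 0.5, cultures sampled hourly, flipped fraction per protease–substrate barcode pair counted by paired-end Illumina sequencing.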

Row | Variant | area with substrate CNLYFQS | area with substrate DNLYFQS | area with substrate FNLYFQS | area with substrate GNLYFQS | area with substrate HNLYFQS | area with substrate INLYFQS | area with substrate LNLYFQS | area with substrate NNLYFQS | area with substrate PNLYFQS | area with substrate QNLYFQS | area with substrate SNLYFQS | area with substrate TNLYFQS | area with substrate VNLYFQS | area with substrate WNLYFQS | area with substrate YNLYFQS | area with substrate KNLYFQS | area with substrate MNLYFQS | area with substrate RNLYFQS
1 | I15D | 0.0425 | 0.0527 | 0.0536 | 0.0426 | 0.041 | 0.061 | 0.0527 | 0.0465 | 0.0492 | 0.0415 | 0.0584 | 0.057 | 0.0457 | 0.0587 | 0.046 |  |  | 
2 | I15K | 0.054 | 0.0646 |  | 0.051 | 0.0573 |  | 0.0551 | 0.0575 | 0.0577 |  |  | 0.0556 |  | 0.0451 | 0.0551 | 0.0618 |  | 
3 | I15Q | 0.0594 | 0.0707 | 0.0477 | 0.0655 | 0.0615 |  | 0.0573 | 0.0466 | 0.0602 |  | 0.0665 | 0.0617 |  | 0.0627 | 0.0717 |  | 0.0606 | 
4 | S17A | 0.178 | 0.068 | 0.0817 | 0.0601 | 0.0628 | 0.0719 | 0.0676 |  |  |  |  | 0.0793 |  | 0.0572 | 0.0671 | 0.0665 |  | 
5 | Y12L | 0.0619 | 0.0863 | 0.0594 | 0.07 | 0.0619 | 0.0692 |  | 0.067 | 0.0819 |  |  | 0.0852 |  | 0.0617 |  |  | 0.0663 | 
6 | R10M | 0.0728 | 0.0355 |  |  |  | 0.0712 | 0.055 |  | 0.0806 | 0.0775 |  | 0.0594 |  |  |  | 0.0727 | 0.0665 | 
7 | P14Y | 0.0712 | 0.0635 | 0.1 | 0.0656 | 0.0692 | 0.0818 | 0.0699 |  | 0.0778 | 0.0977 | 0.0532 | 0.0568 |  | 0.0611 | 0.0589 | 0.087 |  | 
8 | P14T | 0.0637 | 0.0691 | 0.0618 | 0.0642 | 0.0606 | 0.0687 | 0.0498 | 0.074 | 0.0615 | 0.0723 | 0.0599 | 0.0631 | 0.0659 | 0.0569 | 0.0826 |  | 0.0775 | 0.0674
9 | P14M | 0.0662 | 0.0496 | 0.0545 | 0.0832 | 0.0686 |  | 0.0609 | 0.0722 |  |  | 0.0671 | 0.0766 | 0.0643 | 0.0658 | 0.0642 |  | 0.0941 | 0.0592
10 | P14A | 0.0686 | 0.0369 | 0.0666 | 0.068 | 0.0828 | 0.0796 |  | 0.0566 | 0.0807 |  | 0.084 | 0.0886 | 0.0727 | 0.0687 | 0.0704 |  |  | 0.0667
11 | K7D | 0.0692 | 0.0769 | 0.031 | 0.0621 | 0.0757 | 0.0814 | 0.0586 | 0.0665 |  |  | 0.0753 | 0.0505 | 0.0601 |  |  |  |  | 0.0566
12 | E3Q | 0.0793 | 0.0835 | 0.0786 | 0.0612 | 0.0687 |  | 0.0633 |  | 0.0602 |  | 0.0657 | 0.0614 | 0.07 |  | 0.058 |  |  | 
13 | E3H | 0.0801 | 0.0728 | 0.0653 | 0.0692 | 0.0654 | 0.0532 | 0.0601 | 0.0799 | 0.0838 |  | 0.0727 | 0.0718 |  | 0.0672 |  |  | 0.0822 | 
14 | E3M | 0.0612 | 0.117 |  |  | 0.0648 | 0.0583 | 0.0754 | 0.059 | 0.0698 |  | 0.0786 | 0.0784 | 0.073 | 0.0553 | 0.0814 | 0.0792 | 0.0645 | 
